Measured values reported in PubChem BioAssay AID485297 (National Center for Advancing Translational Sciences (NCATS), 2010).
About 9,100 (2.8%) of roughly 320,000 compounds were called active. This list was built around the results that the source calls inconclusive (neither active nor inactive); the mix of calls is not that of the screen. Calls follow the shape of the dose curve; as a rule, active = well fitted activation curve with a large enough effect; inconclusive = small, poorly fitted or top-dose-only effect; inactive = no such curve, though single readings can be large or run the other way. Potencies beside an inconclusive call are fits to weak or partial responses and may not hold up.

Assay: qHTS Assay for Rab9 Promoter Activators; also: nearly all actives have a fitted effect of over 60% in size
Conditions: Huh7 Rab9 promoter-luciferase reporter, luminescence, 24 h; series mostly up to 9.22 µM
In short: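 Using Huh7 cells stably transfected with Rab9 promoter–luciferase, compounds were incubated 24 h at 37 °C, 5% CO2; luciferase luminescence was read 10 min after reagent addition.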
Potency is read from the fitted curve at half-maximal effect; tags tell the direction and shape of the fitted curve.

Potency, inactive:
O=C(Nc1ccc(Cl)cc1)N1CCSCC1
CCC(=O)NNC(=O)CCC(=O)Nc1ccccc1
NS(=O)(=O)c1ccc(Cl)c(C(=O)Nc2ccccc2[N+](=O)[O-])c1
CC(=O)c1cccc(-n2nnnc2SCC(=O)Nc2cccc(NC(=O)c3ccco3)c2)c1
COc1ccc(N(CC(=O)NCc2ccc(F)cc2)C(=O)c2snc(C(N)=O)c2N)cc1OC
CCCC(=O)c1cc(F)c(N2CCOCC2)cc1C
Cc1ccnc2nc(C(=O)Nc3ccc(S(=O)(=O)N4CCCC4)cc3)nn12
O=C(CSc1nnc(-c2ccc(C(F)(F)F)cn2)s1)c1ccccc1
COc1ccc(NC(=O)Nc2cc(C)ccc2OC)cc1
O=C(COC(=O)C1CCCCC1)NCCc1ccccc1
COc1ccc(C(=O)CSc2ccc(-c3ccco3)nn2)cc1
COCCCNC(=S)NNC(=O)c1cc(C2CC2)nc2ccccc12
CCCNC(=O)CN1C(=O)c2ccccc2Sc2ncccc21
Cc1ccc(S(=O)(=O)CCC(O)c2ccc(Cl)cc2)cc1 (stereo not given)

Potency, active:
O=C(Nc1ccc2c(c1)OCCO2)c1cnccn1 2 µM
Cc1ccc(-n2ncc3c(N4CCCC(C)C4)ncnc32)c(C)c1 (stereo not given) 2 µM
COc1cccc2c(=O)c(C(=O)NCc3cccs3)c[nH]c12 3.55 µM
Cc1cc(C(=O)Nc2ccc3ccccc3c2)oc1C 0.794 µM
CN(C)/C=N/C(=S)Nc1ccc(Br)cc1F 3.98 µM
CCOC(=O)c1c(C)nc2c3ccccc3ccn12 2.24 µM
Cc1ccc2oc(C(=O)NCCC3CCCCO3)c(C)c2c1 (stereo not given) 0.447 µM
COc1cccc(C(=O)Nc2ccc(N3CCCC3)cc2)c1 1.12 µM
COc1ccc(NC(=O)c2ccc3c(c2)OCO3)cc1 0.631 µM

Potency, inconclusive:
O=c1c(-c2cc3ccccc3o2)[n+]([O-])c2ccccc2n1OCc1ccccn1 4.47 µM [activator, single point]
O=C1CN(C(=S)NC(=O)c2ccc(-c3ccccc3)cc2)CCN1 3.16 µM [activator, partial curve]
Brc1ccc2oc3c(N4CCOCC4)ncnc3c2c1 4.47 µM [activator, partial curve]
C[C@@H]1CC=C[C@H]2[C@H]1C(=O)N(Cc1ccccc1)[C@H]2c1ccc(-c2cc3ccccc3s2)cc1F 3.16 µM [activator, partial curve]
CCOC(=O)C1(CCc2ccccc2)CCN(C(=O)Cc2nonc2C)CC1 5.62 µM [activator, single point]
CCCC(=O)Nc1ccc(-c2csc(-c3cccnc3)n2)cc1 2.51 µM [activator, partial curve]
c1csc(-c2ccc3ccccc3n2)c1 2.82 µM [activator, partial curve]
C(=C\c1ccccn1)/c1cccnc1 1.58 µM [activator, partial curve]
CC1(C(=O)OCC(=O)Nc2ccccc2Cl)CC1(Cl)Cl (stereo not given) 5.62 µM [activator, single point]
CCC(=O)Nc1cc(C(=O)OCC(=O)c2ccccc2)ccc1C 3.16 µM [activator, partial curve]
N=c1c2ccccc2nnn1-c1ccc(C(F)(F)F)cc1 3.98 µM [activator, partial curve]
CCC(=O)Nc1nc2ccc(NC(=O)COc3ccccc3)cc2s1 1.26 µM [activator, partial curve, poor fit]
S=C(Nc1ccc(Br)cc1)Nc1ccc2c(c1)OCCO2 3.55 µM [activator, partial curve]
Nc1ccc(-c2cc(N)n(-c3ccccc3)n2)cc1 5.62 µM [activator, single point]
CC(C)(C)C(=O)Oc1ccc2cc(-c3ccc4ccccc4n3)c(=O)oc2c1 3.98 µM [activator, single point]
O=C(Cn1nnc2ccccc21)c1ccc(Cl)cc1 5.62 µM [activator, single point]
O=[N+]([O-])c1ccc(-c2nc3ccc([N+](=O)[O-])cc3[nH]2)cc1 1.41 µM [activator, partial curve]
CC1CCCN(C(=S)NCCc2ccccc2)C1 (stereo not given) 2.51 µM [activator, partial curve]
COc1ccc(C(=O)Nc2cccc(N(C)S(C)(=O)=O)c2)cc1OC 3.16 µM [activator, partial curve]
Clc1ccccc1OCCn1nnc2ccccc21 3.16 µM [activator, partial curve]
O=c1c(-c2ccc(O)cc2)coc2cc(OC3OC(CO)C(O)C(O)C3O)cc(O)c12 (stereo not given) 5.62 µM [activator, single point]
N#C/C(=C(/O)c1ccco1)c1nc2ccccc2[nH]1 3.98 µM [activator, single point]
COc1ccc(S(=O)(=O)n2ccc(-c3cnc(-c4ccccc4)s3)n2)cc1 3.55 µM [activator, single point]
Cc1ccc(NC(=S)N2CCCCC2CO)cc1C (stereo not given) 3.55 µM [activator, single point]
Cc1ccccc1-c1nnc(-c2ccccc2C)o1 4.47 µM [activator, single point]
COc1ccc(N2CCN(C(=O)c3ccc(Cn4c(=S)[nH]c5ccc(N6CCOCC6)cc5c4=O)cc3)CC2)cc1 3.16 µM [activator, single point]
CN(C)CCCNC(=O)c1ccc(-c2nc(-c3ccc(Cl)cc3)cs2)cc1 0.562 µM [activator, full curve]
